Test results reported in the supplement of paper PMC4967469.
IC50 is the fitted dose that halves viability relative to control wells, and lower means more sensitive; a fit beyond the top or the lowest dose is shown as a bound at that dose. AUC is the area under the same curve over the 256-fold range up to the top dose, as a fraction; values near 1 show little effect. For part of these data: Where the top dose is marked as inferred, it comes from the curve model; the source does not state it.

Key:
Assay in all cases: Viability of human cancer cell lines after 72 h of drug (GDSC screen)
CX-5461 = compound: Cc1cnc(CNC(=O)c2c(=O)c3ccc(N4CCCN(C)CC4)nc3n3c2sc2ccccc23)cn1 [CX-5461]; details: top dose 10.24 µM; top dose inferred
Procedure: (§1)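 Human cancer cell lines in 384-well plates, medium with 10% serum, drug for 72 h over a 256-fold dose range (nine 2-fold or five 4-fold steps up to the top dose). Adherent lines were fixed and stained with the nucleic acid dye Syto60, suspension lines read with resazurin; signal relative to control wells, capped at 0 and 100%. One two-parameter sigmoid per drug and line, fitted in a mixed model over all curves with the slope shared within a line.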

Obatoclax mesylate = compound: COC1=CC(c2cc3ccccc3[nH]2)=N/C1=C\c1[nH]c(C)cc1C [Obatoclax mesylate]; details: top dose 16 µM
Procedure: as §1

Bortezomib = compound: CC(C)C[C@H](NC(=O)[C@H](Cc1ccccc1)NC(=O)c1cnccn1)B(O)O [Bortezomib]; details: top dose 0.02 µM
Procedure: as §1

CP724714 = compound: COCC(=O)NC/C=C/c1ccc2ncnc(Nc3ccc(Oc4ccc(C)nc4)c(C)c3)c2c1 [CP724714]; details: top dose 10.24 µM; top dose inferred
Procedure: as §1

STF-62247 = compound: Cc1cccc(Nc2nc(-c3ccncc3)cs2)c1 [STF-62247]; details: top dose 10.24 µM; top dose inferred
Procedure: as §1

Paclitaxel = compound: CC(=O)O[C@H]1C(=O)[C@@]2(C)[C@H]([C@H](OC(=O)c3ccccc3)[C@]3(O)C[C@H](OC(=O)[C@H](O)[C@@H](NC(=O)c4ccccc4)c4ccccc4)C(C)=C1C3(C)C)[C@]1(OC(C)=O)CO[C@@H]1C[C@@H]2O [Paclitaxel]; details: top dose 0.1024 µM
Procedure: as §1

Cell Line | AUC (CX-5461) | IC50 (CX-5461) [nM] | AUC (Obatoclax mesylate) | IC50 (Obatoclax mesylate) [nM] | AUC (Bortezomib) | IC50 (Bortezomib) [nM] | AUC (CP724714) | IC50 (CP724714) [nM] | AUC (STF-62247) | IC50 (STF-62247) [nM] | AUC (Paclitaxel) | IC50 (Paclitaxel) [nM]
NCI-H1355 (lung adenocarcinoma, adherent) | 0.978 | > 10200 | 0.262 | 151 | 0.447 | 0.839 | 0.966 | > 10200 | 0.976 | > 10200 | 0.551 | 9.4
NCI-H1395 (lung adenocarcinoma, adherent) | 0.936 | > 10200 | 0.825 | 14200 | 0.909 | > 20 | 0.972 | > 10200 | 0.969 | > 10200 | 0.947 | > 102
NCI-H1436 (small cell lung carcinoma, suspension) | 0.868 | > 10200 | 0.554 | 1440 | 0.87 | > 20 | 0.984 | > 10200 | 0.985 | > 10200 | 0.617 | 14.1
NCI-H1581 (large cell lung carcinoma, semi-adherent) | 0.99 | > 10200 | 0.625 | 2150 | 0.758 | 6.45 | 0.965 | > 10200 | 0.98 | > 10200 | 0.797 | 44
NCI-H1648 (lung adenocarcinoma, adherent) | 0.752 | 3590 | 0.209 | 131 | 0.698 | 4.67 | 0.943 | > 10200 | 0.972 | > 10200 | 0.463 | 5.05
NCI-H1666 (lung adenocarcinoma, semi-adherent) | 0.979 | > 10200 | 0.583 | 1730 | 0.965 | > 20 | 0.987 | > 10200 | 0.987 | > 10200 | 0.987 | > 102
NCI-H1694 (small cell lung carcinoma, suspension) | 0.847 | 7510 | 0.548 | 1350 | 0.786 | 8.59 | 0.969 | > 10200 | 0.971 | > 10200 | 0.902 | > 102
NCI-H1770 (non-small cell lung carcinoma, suspension) | 0.992 | > 10200 | 0.144 | 95.7 | 0.97 | > 20 | 0.987 | > 10200 | 0.992 | > 10200 | 0.992 | > 102
NCI-H1836 (small cell lung carcinoma, suspension) | 0.858 | 9830 | 0.836 | 12200 | 0.852 | 18 | 0.985 | > 10200 | 0.987 | > 10200 | 0.809 | 60.2
NCI-H1838 (lung adenocarcinoma, adherent) | 0.983 | > 10200 | 0.954 | > 16000 | 0.985 | > 20 | 0.986 | > 10200 | 0.979 | > 10200 | 0.96 | > 102
NCI-H1869 (lung squamous cell carcinoma, adherent) | 0.959 | > 10200 | 0.312 | 275 | 0.696 | 4.79 | 0.96 | > 10200 | 0.983 | > 10200 | 0.872 | > 102
NCI-H1975 (lung adenocarcinoma, adherent) | 0.782 | 4950 | 0.382 | 450 | 0.254 | 0.218 | 0.961 | > 10200 | 0.981 | > 10200 | 0.598 | 12.4
NCI-H2081 (small cell lung carcinoma, suspension) | 0.967 | > 10200 | 0.481 | 887 | 0.798 | 10.2 | 0.982 | > 10200 | 0.975 | > 10200 | 0.974 | > 102
NCI-H2135 (non-small cell lung carcinoma, adherent) | 0.58 | 1050 | 0.594 | 1790 | 0.699 | 4.46 | 0.989 | > 10200 | 0.987 | > 10200 | 0.887 | > 102
NCI-H2141 (small cell lung carcinoma, suspension) | 0.947 | > 10200 | 0.479 | 880 | 0.719 | 5.11 | 0.991 | > 10200 | 0.984 | > 10200 | 0.824 | 58.7
NCI-H2171 (small cell lung carcinoma, suspension) | 0.98 | > 10200 | 0.45 | 745 | 0.946 | > 20 | 0.979 | > 10200 | 0.988 | > 10200 | 0.966 | > 102
NCI-H2196 (small cell lung carcinoma, adherent) | 0.9 | > 10200 | 0.677 | 3220 | 0.725 | 5.65 | 0.97 | > 10200 | 0.982 | > 10200 | 0.949 | > 102
NCI-SNU-1 (stomach, suspension) | 0.69 | 2230 | 0.135 | 67 | 0.746 | 6.52 | 0.926 | > 10200 | 0.98 | > 10200 | 0.918 | > 102
NCI-SNU-5 (stomach, suspension) | 0.989 | > 10200 | 0.497 | 984 | 0.631 | 2.88 | 0.989 | > 10200 | 0.989 | > 10200 | 0.667 | 18.8
NCI-SNU-16 (stomach, suspension) | 0.991 | > 10200 | 0.89 | 14600 | 0.763 | 6.44 | 0.979 | > 10200 | 0.991 | > 10200 | 0.475 | 5.52
NEC8 (testis, adherent) | 0.278 | 169 | 0.268 | 247 | 0.561 | 1.78 | 0.991 | > 10200 | 0.951 | > 10200 | 0.791 | 38.6

Cell Line | AUC (CX-5461) | IC50 (CX-5461) [nM] | AUC (Obatoclax mesylate) | IC50 (Obatoclax mesylate) [nM] | AUC (Bortezomib) | IC50 (Bortezomib) [nM] | AUC (CP724714) | IC50 (CP724714) [nM] | AUC (STF-62247) | IC50 (STF-62247) [nM] | AUC (Paclitaxel) | IC50 (Paclitaxel) [nM]
NKM-1 (acute myeloid leukaemia, suspension) | 0.384 | 305 | 0.156 | 84.1 | 0.591 | 2.24 | 0.967 | > 10200 | 0.968 | > 10200 | 0.764 | 38.2
NMC-G1 (glioma, adherent) | 0.874 | > 10200 | 0.326 | 290 | 0.638 | 3.29 | 0.979 | > 10200 | 0.952 | > 10200 | 0.695 | 25.8
NOS-1 (osteosarcoma, adherent) | 0.862 | > 10200 | 0.255 | 166 | 0.584 | 2.25 | 0.89 | > 10200 | 0.967 | > 10200 | 0.5 | 6.38
NTERA-2 cl.D1 (testis, adherent) | 0.953 | > 10200 | 0.157 | 89.5 | 0.311 | 0.371 | 0.98 | > 10200 | 0.963 | > 10200 | 0.339 | 2.29
NU-DUL-1 (B-cell lymphoma, suspension) | 0.805 | 4000 | 0.111 | 83.3 | 0.541 | 1.58 | 0.984 | > 10200 | 0.863 | 6150 | 0.577 | 9.92
OCI-AML5 (acute myeloid leukaemia, suspension) | 0.411 | 373 | 0.469 | 832 | 0.517 | 1.38 | 0.988 | > 10200 | 0.873 | 8390 | 0.624 | 13.6
OCI-LY-19 (B-cell lymphoma, suspension) | 0.204 | 93.8 | 0.086 | < 62.5 | 0.517 | 1.39 | 0.988 | > 10200 | 0.947 | > 10200 | 0.379 | 3.05
OCI-M1 (acute myeloid leukaemia, suspension) | 0.573 | 963 | 0.44 | 714 | 0.347 | 0.527 | 0.971 | > 10200 | 0.884 | 6640 | 0.739 | 25
OCUB-M (breast, adherent) | 0.896 | 9610 | 0.276 | 257 | 0.319 | 0.422 | 0.679 | 1870 | 0.939 | > 10200 | 0.379 | 3.12
OMC-1 (cervix, adherent) | 0.962 | > 10200 | 0.468 | 814 | 0.691 | 4.43 | 0.974 | > 10200 | 0.984 | > 10200 | 0.869 | 102
ONS-76 (medulloblastoma, adherent) | 0.721 | 2860 | 0.111 | < 62.5 | 0.341 | 0.435 | 0.984 | > 10200 | 0.984 | > 10200 | 0.623 | 14.4
OS-RC-2 (kidney, adherent) | 0.968 | > 10200 | 0.374 | 384 | 0.351 | 0.399 | 0.967 | > 10200 | 0.978 | > 10200 | 0.819 | 96.1
OVCAR-4 (ovary, adherent) | 0.822 | > 10200 | 0.322 | 249 | 0.392 | 0.546 | 0.924 | > 10200 | 0.976 | > 10200 | 0.567 | 10.7
P30-OHK (lymphoblastic leukaemia, suspension) | 0.384 | 326 | 0.133 | 94.3 | 0.945 | > 20 | 0.933 | > 10200 | 0.973 | > 10200 | 0.974 | > 102
P32-ISH (Burkitt lymphoma, suspension) | 0.607 | 1170 | 0.013 | < 62.5 | 0.431 | 0.849 | 0.994 | > 10200 | 0.953 | > 10200 | 0.795 | 35
PF-382 (T-cell lymphoblastic leukaemia, suspension) | 0.451 | 478 | 0.175 | 124 | 0.516 | 1.38 | 0.99 | > 10200 | 0.983 | > 10200 | 0.676 | 18.5
PL-21 (acute myeloid leukaemia, suspension) | 0.976 | > 10200 | 0.469 | 813 | 0.609 | 2.62 | 0.968 | > 10200 | 0.914 | > 10200 | 0.582 | 11.2
PSN1 (pancreas, adherent) | 0.596 | 1120 | 0.029 | < 62.5 | 0.441 | 0.888 | 0.978 | > 10200 | 0.958 | > 10200 | 0.24 | 1.32
QIMR-WIL (acute myeloid leukaemia, suspension) | 0.284 | 160 | 0.254 | 202 | 0.489 | 1.17 | 0.955 | > 10200 | 0.969 | > 10200 | 0.602 | 12.1
RCC10RGB (kidney, adherent) | 0.926 | > 10200 | 0.508 | 1070 | 0.638 | 4.36 | 0.955 | > 10200 | 0.924 | > 10200 | 0.964 | > 102
